This note sets out measurements from ChEMBL document CHEMBL1201862, “PubChem BioAssay data set” (2004).

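96-well plates; 48 h exposure; 5 concentrations. Endpoints by linear interpolation between flanking doses. Not reached: highest tested concentration assigned. At the GI50, growth is halved.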 The source made the active and inactive calls. Rule as the data show it: active = GI50 up to about 1.1 µM and inactive = higher. A value given as a limit tells only on which side of the number the result lay.

The subject of this experiment is NCI-H322M. Kind of experiment: NCI tumour cell line growth inhibition, 48 h.
Regarding `OC1(c2ccc(Cl)cc2)c2ccccc2C2=Nc3ccccc3CN21` (stereo not given), the GI50 was inactive: > 61.8 µM.
With `Cn1c(=O)c2nc(CCS)[nH]c2n(C)c1=O`, the GI50 was inactive: > 100 µM.
For the compound `Oc1c(C(O)(c2ccccc2)c2ccc3ccccc3c2O)ccc2ccccc12`, the GI50 is inactive: 14.2 µM.
The result for `CC(=O)c1ccc(O)c(CN(C2CCCCC2)C2CCCCC2)c1O` reads inactive: 88.5 µM.
Regarding `COc1ccc2c(c1)[n+]([O-])c(/C(C)=N/NC(N)=S)c(C)[n+]2[O-]`, the GI50 was inactive: > 56 µM.
Turning to `O=S(=O)(O)c1ccc2cc(/N=N\c3cc(S(=O)(=O)O)c4cccnc4c3O)ccc2c1`, the GI50 is inactive: > 100 µM.
Turning to `O=C(NCCc1ccccc1)c1c(O)nc2ccccc2c1O`, the GI50 is inactive: > 100 µM.
As for `c1ccc(-c2cnc(-c3ccc(-c4ncc(-c5ccccc5)o4)cc3)o2)cc1`, the GI50 is inactive: > 100 µM.
Take `O=[N+]([O-])c1ccc2nc(-c3ccccn3)c(-c3ccccn3)nc2c1`: the GI50 is inactive: > 100 µM.
For `CN(C)CCc1c2c(nc3ccccc13)C(=O)c1cccnc1C2=O`, the GI50 is active: 0.238 µM.
`C=C(C)c1cc(C(C)(C)C)cc(C(=C)C)c1S(C)(=O)=O`: the GI50 was inactive: > 100 µM.
`C[C@H]1CC[C@H](NC(=O)N(CCCl)N=O)CC1`: the GI50 was inactive: 81.1 µM.
`Cc1nc2cccc(F)c2c(=O)n1-c1nnc(C2CC2)s1`: the GI50 is inactive: > 10 µM.
As for `COC12CCC(=O)C=C1c1ccccc1N2C(C)=O` (stereo not given), the GI50 was inactive: > 100 µM.
Take `O=C(Nc1ccccc1)c1ccc(Cl)c([N+](=O)[O-])c1`: the GI50 was inactive: 17.8 µM.
The result for `CCCCCCCCCCCCCCCCCCOC(COP(=O)(O)OCC1OC(n2cc(F)c(=O)[nH]c2=O)CC1O)COP(=O)(O)OCC1OC(n2ccc(N)nc2=O)C(O)C1O` (stereo not given) reads inactive: 36 µM; that for `Cc1cc(S(=O)(=O)/N=C(\NN)NCC(=O)NN)c(S)cc1Cl`, inactive: > 10 µM.
Consider `COC(=O)C1=C(OC)[C@H]2C#C/C=C\C#C[C@@H]3Nc4c(cc(O)c5c4C(=O)c4ccccc4C5=O)[C@]24O[C@@]34[C@H]1C`, for which the GI50 was active: < 0.0126 µM.
The same measure for `O=C1c2c(ccc3c2CCC3)CC12Cc1ccccc1C2`: inactive: 16.2 µM; for `Cc1csc2c1C(=O)c1ccsc1C2=O`: inactive: 2.16 µM; for `COc1ccc([N+](=O)[O-])c2c(NCCCN(C)C)ccnc12`: inactive: 15.6 µM.
The same measure for `CC(C)(C)NCc1cc(Nc2ccnc3cc(Cl)ccc23)cc(-c2ccc(Cl)cc2)c1O`: inactive: 3.52 µM.
As to `COc1nc2c(c(=O)n1C)N=C(c1ccc(Cl)cc1)CC(c1ccccc1)N2` (stereo not given), the GI50 is inactive: 30.4 µM.
Consider `CCCCCCCC(=O)OC[C@@H](C[As](=O)(O)O)OC(=O)CCCCCCC`, for which the GI50 was inactive: 13.8 µM.
The result for `CN(C)c1ccc(/C=C/C(=O)CC(=O)/C=C/c2ccc(N(C)C)cc2)cc1` reads inactive: > 100 µM; that for `O=c1oc2ccc([N+](=O)[O-])cc2c(Nc2ccc3c(c2)S(=O)(=O)c2ccccc2O3)c1[N+](=O)[O-]`, inactive: 88.7 µM; that for `O=C1C(N2CCNCC2)=C(Cl)C(=O)c2ncccc21`, inactive: > 10 µM.
Consider `CCC1=CCN(c2cc(C)ccn2)OC1c1ccccc1` (stereo not given), for which the GI50 is inactive: 61 µM.
The same measure for `COc1cc(Nc2nc3cc(C(F)(F)F)ccc3nc2C(=O)O)cc(OC)c1OC`: inactive: 37 µM.
For `O=C(NC1C(=O)NNC1c1ccccc1Cl)c1ccccc1` (stereo not given), the GI50 is inactive: > 100 µM.
Consider `Cc1c(-c2ccccc2)c(C#N)c2nnn(-c3ccc([N+](=O)[O-])cc3)c(=O)n12`, for which the GI50 is inactive: 22.8 µM.
The same measure for `COc1ccc(/C(=N\Nc2ccccn2)c2ccccn2)cc1`: active: < 0.0228 µM; for `COc1ccc(NC(C)=O)cc1N1C(=O)/C(=C\c2cc(OC)c(OC)c(OC)c2)S(=O)(=O)C1c1ccccc1` (stereo not given): inactive: > 100 µM.
Turning to `Cc1cc2c(c(/C=N/c3ccccc3O)c1)OC1(C=C2)Oc2ccccc2C(=O)N1C` (stereo not given), the GI50 was inactive: 17.9 µM.
Take `O=C(COc1ccc(Cl)c(Cl)c1)N(Cc1ccccc1)Cc1ccc[n+](Cc2ccc(Cl)cc2S(=O)(=O)F)c1`: the GI50 is inactive: 84.7 µM.
With `Cc1cccc(N2C(=O)C3c4[nH]c5ccccc5c4C4CCC(C(C)(C)C)CC4C3C2=O)c1` (stereo not given), the GI50 was inactive: 12.4 µM.
Turning to `CCc1cccc(CC)c1NC(=O)C1=C(C)NC(C)=C(C(=O)Nc2c(CC)cccc2CC)C1c1ccc2c(c1)OCO2`, the GI50 was inactive: 16.9 µM.
In the case of `CC(=O)n1nc(-c2ccccc2)n(/N=C/c2ccc([N+](=O)[O-])cc2)c1=O`, the GI50 was inactive: 36.1 µM.
Take `COc1ccc(/C=C2\CN(C)C/C(=C\c3ccc(OC)c(OC)c3OC)C2=O)c(OC)c1OC`: the GI50 was active: 0.183 µM.
For `Cc1c(C(=O)C/C(=N/NC(=O)c2ccccc2O)C(=O)Nc2ccccc2C(C)C)[n+]([O-])c2ccccc2[n+]1[O-]`, the GI50 is inactive: 40.6 µM.
As to `O=c1[nH]nc(-c2ccccc2)n1/N=C/c1cccs1`, the GI50 was inactive: > 100 µM.
With `COc1ccccc1NC(=O)NS(=O)(=O)c1ccccc1`, the GI50 is inactive: > 100 µM.
The same measure for `c1cc(-c2cnc(-c3ccc4c(c3)CCCO4)o2)ccn1`: inactive: 19 µM; for `C=CC1(CBr)CCC(C(C)(C)Br)O1` (stereo not given): inactive: 18.6 µM; for `O=C(CCCCCCCCC(=O)NN1C(=O)/C(=C\c2ccc(O)c(O)c2)SC1c1ccc(Cl)cc1)NN1C(=O)/C(=C\c2ccc(O)c(O)c2)SC1c1ccc(Cl)cc1` (stereo not given): inactive: 10.5 µM.
As to `CC(NC(=O)OCc1ccccc1)NC(=O)OC(C)(C)C` (stereo not given), the GI50 was inactive: > 100 µM.
The same measure for `CC[C@]12C=CCN3CC[C@@]4(c5cc(Br)c(OC)cc5N(C)[C@H]4[C@@](O)(C(=O)NC(Cc4c[nH]c5ccccc45)C(=O)OC)[C@@H]1O)[C@@H]32` (stereo not given in full): inactive: 8.05 µM; for `COC(=O)CCC(NC(=S)N/N=C(\C)c1ccco1)C(=O)OC` (stereo not given): inactive: > 100 µM; for `COC1(Cc2ccccc2)C(=O)c2ccccc2N1C(C)=O` (stereo not given): inactive: > 100 µM.
For the compound `CCOC(=O)/C(=C\NC(C)(C)CO)c1nc2ccccc2[nH]1`, the GI50 is inactive: > 100 µM.
With `CN(C)CC(O)c1ccc(Cl)c2ccccc12` (stereo not given), the GI50 was inactive: > 100 µM.
For the compound `OCC12C3C4C5C3C1C5C42` (stereo not given), the GI50 is inactive: > 100 µM.
The result for `Cc1ccc(O)c(-c2cc(-c3cccc(Cl)c3)c(C#N)c(N)n2)c1` reads inactive: 24.6 µM; that for `C=C(C)COc1ccc2c(c1)CCC1C2CCC2(C)C(=O)/C(=N/O)CC12` (stereo not given), inactive: 7.93 µM; that for `O=C(O)CSC(CC1(c2ccc(Cl)cc2)NC(=O)CS1)c1ccc(Cl)cc1` (stereo not given), inactive: > 100 µM.
Take `C(=C\C(Sc1ccccc1)c1ccccc1)/NNC1=NN=C(c2ccccc2)C(c2ccccc2)N1` (stereo not given): the GI50 is inactive: 70.5 µM.
In the case of `Cc1ccc(C2(O)CS/C(=N\C34CC5CC(CC(C5)C3)C4)N2C(P(=O)(O)O)P(=O)(O)O)cc1` (stereo not given), the GI50 is inactive: 69.7 µM.
In the case of `N=C1CCCC1C(=S)SCCC(N)=O` (stereo not given), the GI50 was inactive: > 100 µM.
Turning to `CS(=O)(=O)N(CCC#N)c1ccc(C=O)cc1`, the GI50 was inactive: > 100 µM.
For the compound `O=c1cc(-c2ccccc2)oc2cc(OCCCOc3ccc4c(=O)cc(-c5ccccc5)oc4c3)ccc12`, the GI50 was inactive: > 100 µM.
The result for `O=[N+]([O-])c1cccc(-c2ncc3c(n2)-c2ccccc2C3)c1` reads inactive: > 100 µM; that for `CC1Cn2c(nc3ccccc32)NC1=O` (stereo not given), inactive: > 100 µM; that for `COc1cc2c(cc1Oc1c(Oc3c(O)c(OC)cc4c3C(CC(C)C)N(C)CC4)c(OC)cc3c1C(CC(C)C)N(C)CC3)C(CC(C)C)N(C)CC2` (stereo not given), inactive: 1.61 µM.
Consider `CC(C)(OCc1ccccc1)c1ccccc1P(c1ccccc1)c1ccccc1`, for which the GI50 was inactive: 48.9 µM.
In the case of `COc1ccc(/C=N/NS(=O)(=O)c2ccccc2)cc1`, the GI50 was inactive: > 100 µM.
As to `CC(C)(C)[Si](Nc1ccccc1)(c1ccccc1)c1ccccc1`, the GI50 is inactive: 15.3 µM.
Consider `CC1(C)OC2OC(COC(=O)C=[N+]=[N-])C3OC(C)(C)OC3C2O1` (stereo not given), for which the GI50 was inactive: > 100 µM.
Turning to `CCOC(=O)C(NC(=O)c1cccc(Cl)c1)(N1CCN(c2cc3c(cc2F)c(=O)c(C(=O)O)cn3CC)CC1)C(F)(F)F` (stereo not given), the GI50 was inactive: 34.1 µM.
As to `Cc1cccc(/C=N/NC(=S)N2CCCCCC2)n1`, the GI50 was active: < 0.0277 µM.
In the case of `CCOC(=O)[C@@H]1C[C@@H]1c1ccc(O)c(O)c1`, the GI50 is inactive: > 100 µM.
As for `CC(C)CCCC(C)[C@H]1CC[C@H]2n3c(nc4ccccc43)CCC[C@]12C` (stereo not given in full), the GI50 was inactive: 19.4 µM.
As to `Cc1cn(CCCCCCOC(=O)NC(CCCNC(N)=O)C(=O)O)c(=O)[nH]c1=O` (stereo not given), the GI50 is inactive: > 100 µM.
Consider `C=CCC1C2CCC(O[Si](C(C)C)(C(C)C)C(C)C)(C(C(=O)OC)C2)C1O` (stereo not given), for which the GI50 is inactive: 41.8 µM.
Consider `Cc1cc(C)c(/N=N/c2c(O)c(S(=O)(=O)O)cc3cc(S(=O)(=O)O)ccc23)cc1C`, for which the GI50 was inactive: > 100 µM.
Turning to `Cc1c(O)oc2ccccc2c1=O`, the GI50 is inactive: > 100 µM.
Regarding `CCCN(CCC)C(=O)Cc1c2n(c3ccccc13)CCCc1ccccc1-2`, the GI50 is inactive: 15.1 µM.
Regarding `[O-][Cl+3]([O-])([O-])[O-].[O-][Cl+3]([O-])([O-])[O-].c1ccn2c(N3CCCC3)[n+]3c4ccccc4n4c(N5CCCC5)[n+]5ccccc5c4c3c2c1`, the GI50 is inactive: > 100 µM.
The result for `C[n+]1ccccc1/C1=c2\cc/c([nH]2)=C(\c2cccc[n+]2C)C2=N/C(=C(/c3cccc[n+]3C)C3C=CC(N3)/C(c3cccc[n+]3C)=C3/C=CC1=N3)C=C2` reads inactive: 94.6 µM; that for `COc1ccc2c(c1[N+](=O)[O-])CC[C@@H]1[C@@H]2CC[C@]2(C)C(=O)CC[C@@H]12`, inactive: > 25 µM; that for `COc1cc(/C=C/C(=O)OCCc2ccccc2)ccc1O`, inactive: 16.8 µM.
